Reference: PubChem BioAssay AID1030 (National Center for Advancing Translational Sciences (NCATS), 2008)
Values joined by “and” are separate entries in the source; they are usually repeats but may differ in a detail not shown here. Identical values can stand only once. The whole screen tested about 220,000 compounds, of which about 16,000 (7.3%) were called active. The inconclusive results got no clear call from the source; some entries with a clear call stand among them for comparison. Calls follow the shape of the dose curve; as a rule, active = well fitted inhibition curve with a large enough effect (not every such curve was filed as active); inconclusive = small, poorly fitted or top-dose-only effect, or another doubt; inactive = no such curve, though single readings can be large or run the other way. A potency beside an inconclusive call is a rough fit, not a confirmed value.

What follows are compounds tested against Aldehyde dehydrogenase 1A1 (Homo sapiens) (UniProt P00352) (assay: qHTS Assay for Inhibitors of Aldehyde Dehydrogenase 1 (ALDH1A1)). Conditions: Purified ALDH1A1, NADH fluorescence, propionaldehyde substrate; series mostly up to 75.3 µM; activity, negative = inhibition: at the top concentration.
Chain of UniProt P00352 (P00352 whole entry, looked up): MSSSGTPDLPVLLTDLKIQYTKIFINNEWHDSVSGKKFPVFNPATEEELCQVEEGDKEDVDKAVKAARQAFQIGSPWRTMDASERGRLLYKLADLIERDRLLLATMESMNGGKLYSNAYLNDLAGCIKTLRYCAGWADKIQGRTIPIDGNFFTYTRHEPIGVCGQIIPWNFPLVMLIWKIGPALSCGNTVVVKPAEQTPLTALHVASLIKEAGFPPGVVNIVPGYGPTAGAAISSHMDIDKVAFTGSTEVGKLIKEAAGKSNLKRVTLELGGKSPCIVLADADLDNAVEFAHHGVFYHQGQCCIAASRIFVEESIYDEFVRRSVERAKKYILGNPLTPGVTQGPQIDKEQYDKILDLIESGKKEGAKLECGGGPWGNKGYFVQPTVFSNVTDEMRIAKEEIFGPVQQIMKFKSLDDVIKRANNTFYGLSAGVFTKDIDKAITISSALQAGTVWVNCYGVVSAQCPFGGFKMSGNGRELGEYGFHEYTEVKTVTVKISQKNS

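For activity, negative = inhibition in this document: plate controls were no enzyme wells and a reference inhibitor.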
Potency is read from the fitted curve at half-maximal effect; tags tell the direction and shape of the fitted curve.

Q: Which “activity, negative = inhibition” value does the source give for `C/C(=N\N=C1\NC(=O)C(Cc2ccccc2)S1)c1ccccc1` (configuration not stated) here?
A: inactive: -8.43%

Q: For `COc1ccc(N2CCN(C(c3nnnn3CCc3ccccc3)C(C)C)CC2)cc1` (configuration not stated), which “activity, negative = inhibition” value is on record?
A: inactive: 10.4%

Q: With `CCC(=O)N1CCc2cc(S(=O)(=O)NCCC(=O)Nc3cc(C)cc(C)c3)ccc21` as the compound, how does the “activity, negative = inhibition” value read?
A: inactive: 2.55%

Q: How did the “activity, negative = inhibition” value turn out when `C#CCOc1ccccc1CNc1ccccc1` was run?
A: inactive: 3.95%

Q: With `Cc1ccc(NC(=O)c2oc3ccc(S(=O)(=O)N4CCOCC4)cc3c2C)cc1C` as the compound, how does the Potency read?
A: inconclusive: 37.7 µM [inhibitor, single point]

Q: For `COc1ccc(/C=C/C2=CC3(C)CC2(C)C(c2ccc(OC)cc2)CC3=O)cc1` (configuration not stated), which activity, negative = inhibition is on record?
A: inactive: -0.839% [at 13.5 µM]

Q: Which Potency does the source give for `CCOC(=O)c1sc(NC(C)=O)nc1C` here?
A: inconclusive: 31.6 µM [inhibitor, single point]

Q: `CCOc1ccc2c(c1)C(C)=CC(C)(C)N2` was tested. Which Potency did it give?
A: inconclusive: 10 µM [inhibitor, partial curve] and inconclusive: 28.2 µM [inhibitor, partial curve] and inconclusive: 39.8 µM [inhibitor, single point]

Q: With `O=C(CN1C(=O)c2ccccc2C1=O)NCCc1c[nH]c2ccccc12` as the compound, how does the “activity, negative = inhibition” value read?
A: inactive: 5.51%

Q: Which “activity, negative = inhibition” value does the source give for `CCn1c2ccccc2c2cc(NC(=O)COC(=O)c3ccccc3Br)ccc21` here?
A: inactive: 1.6%

Q: How did the Potency turn out when `Cc1ccnc(NC(c2ccncc2)c2c(C)[nH]c3ccccc23)c1` (configuration not stated) was run?
A: inconclusive: 23.8 µM [inhibitor, single point]

Q: How did the Potency turn out when `O=C(C1CCN(c2nnc(N3CCCC3=O)s2)CC1)N1CCN(Cc2ccc3c(c2)OCO3)CC1` was run?
A: inconclusive: 22.4 µM [inhibitor, single point]

Q: Which Potency does the source give for `COc1ccc(N/C(=C/[N+](=O)[O-])SC)cc1` here?
A: inconclusive: 17.8 µM [inhibitor, partial curve]

Q: `Cc1onc(-c2ccccc2)c1C(=O)NC(=S)Nc1sc2c(c1C#N)CCCC2` was tested. Which Potency did it give?
A: active: 0.501 µM

Q: For `N#Cc1ccc(N2C(=O)[C@@H]3C(C(=O)c4ccc5ccccc5n4)=NN[C@@H]3C2=O)cc1`, which Potency is on record?
A: active: 7.94 µM

Q: `O=C(c1ccc2c(c1)OCO2)C1CCCN(C(=O)NCc2ccccc2)C1` (configuration not stated) was tested. Which “activity, negative = inhibition” value did it give?
A: inactive: -7.82%

Q: With `N#CCCN1CCN(C(=S)c2ccc(-c3cccc(Cl)c3)o2)CC1` as the compound, how does the Potency read?
A: active: 11.2 µM

Q: Which Potency does the source give for `COC1=C/C(=C/c2c(N)n3cc(C)sc3nc2=O)C=CC1=O` here?
A: inconclusive: 39.8 µM [inhibitor, single point]

Q: For `NC(=O)COC(=O)CC12CC3CC(CC(Br)(C3)C1)C2`, which “activity, negative = inhibition” value is on record?
A: inactive: 3%

Q: Which Potency does the source give for `CCCc1c(C)c2c(C)[nH]nc2oc1=O` here?
A: inconclusive: 35.5 µM [inhibitor, single point]

Q: With `O=C(NCc1ccco1)C(c1cccs1)N(C(=O)C1COc2ccccc2O1)c1cccc(O)c1` (configuration not stated) as the compound, how does the “activity, negative = inhibition” value read?
A: inactive: -12.5%

Q: With `O=C(CSc1nc2ccccc2c(=O)n1-c1ccc(Cl)cc1)N/N=C/C=C/c1ccccc1[N+](=O)[O-]` as the compound, how does the Potency read?
A: inconclusive: 3.55 µM [inhibitor, full curve]

Q: Which Potency does the source give for `COc1ccc2c(c1OC)C(=O)N(c1ccccc1)C2=O` here?
A: inconclusive: 22.4 µM [inhibitor, single point]

Q: For `COc1ccc(C(=O)N/N=C(\C)Cn2nc([N+](=O)[O-])cc2C)cc1`, which Potency is on record?
A: inconclusive: 39.8 µM [inhibitor, single point]

Q: With `O=C(O)CSc1cc(C(=O)c2ccccc2O)cn2c(=O)c3c(-c4ccccc4)csc3nc12` as the compound, how does the Potency read?
A: active: 3.55 µM

Q: How did the Potency turn out when `COCCn1c(=O)c(-c2cccs2)nc2cnc(OCc3ccccc3)nc21` was run?
A: inconclusive: 20 µM [inhibitor, partial curve]

Q: `Cc1cccc(-n2c(=S)[nH]c3nc4c(cc3c2=O)COC(C)(C)C4)c1` was tested. Which Potency did it give?
A: active: 0.708 µM

Q: How did the Potency turn out when `Cc1noc(C)c1CN1C(=O)NC2(CCCCCCC2)C1=O` was run?
A: inconclusive: 1.58 µM [inhibitor, partial curve, poor fit]

Q: Which “activity, negative = inhibition” value does the source give for `CN(C)CC(C)(C)CNC(=S)Nc1ccc(S(=O)(=O)N2CCOCC2)cc1` here?
A: inactive: 13.9%

Q: Which “activity, negative = inhibition” value does the source give for `COc1ccc(/C=N/NC(=O)CCC(=O)Nc2ccccc2)cc1OC` here?
A: inactive: 11.8%

Q: Which Potency does the source give for `CCNC(=S)NNc1nncc2ccccc12` here?
A: inconclusive: 3.16 µM [inhibitor, full curve]

Q: With `CSC1=NCCN1C(=O)c1ccco1` as the compound, how does the Potency read?
A: inconclusive: 39.8 µM [inhibitor, single point]

Q: With `CCC(=O)N1CCN(c2ccc(NC(=O)c3cc4ccccc4o3)cc2)CC1` as the compound, how does the “activity, negative = inhibition” value read?
A: inactive: 4.23%

Q: Which Potency does the source give for `N#Cc1cnc(SCC(=O)Nc2ccccc2C(F)(F)F)nc1N` here?
A: inconclusive: 31.6 µM [inhibitor, partial curve]

Q: How did the Potency turn out when `CC(=O)CCS(=O)(=O)c1ccc(NC(C)=O)cc1` was run?
A: inconclusive: 39.8 µM [inhibitor, single point]

Q: For `COc1cccc(NS(=O)(=O)c2ccc3[nH]cc(C(=O)NCCN4CCOCC4)c(=O)c3c2)c1`, which Potency is on record?
A: inconclusive: 31.6 µM [inhibitor, single point]

Q: For `COc1ccc(C)cc1Nc1ccc(C(=O)O)cc1[N+](=O)[O-]`, which “activity, negative = inhibition” value is on record?
A: inactive: 2.99%

Q: With `O=C(c1ccc(CS(=O)(=O)c2ccc(Br)cc2)o1)N1CCCC1` as the compound, how does the Potency read?
A: inconclusive: 39.8 µM [inhibitor, single point]

Q: `Cc1ccc(S(=O)(=O)NCC(=O)NCC(=O)OCC(=O)N2CC(=O)Nc3ccccc32)cc1C` was tested. Which Potency did it give?
A: inconclusive: 37.7 µM [inhibitor, single point]

Q: For `O=S(Cc1ccc(Br)cc1)Cc1nnc(SCc2c(Cl)cccc2Cl)n1-c1ccccc1` (configuration not stated), which “activity, negative = inhibition” value is on record?
A: inactive: 2.4%

Q: With `CN=c1scc(-c2ccco2)n1/N=C/c1ccc(O)c(O)c1` as the compound, how does the Potency read?
A: active: 28.2 µM

Q: With `CCN(CC)S(=O)(=O)c1cccc(C(=O)Nc2ccc3c(c2)OCO3)c1` as the compound, how does the Potency read?
A: inconclusive: 35.5 µM [inhibitor, single point]

Q: Which Potency does the source give for `O=C(CCN1C(=O)C2CC=C(Cl)CC2C1=O)NCc1ccco1` (configuration not stated) here?
A: active: 22.4 µM

Q: For `OCCNc1nc(-c2ccccc2)c2ccccc2n1`, which Potency is on record?
A: inconclusive: 28.2 µM [inhibitor, partial curve]

Q: With `CCc1ccc2[nH]c(=O)c(CN(CCN(CC)CC)C(=S)NCc3ccco3)cc2c1` as the compound, how does the Potency read?
A: inconclusive: 44.7 µM [inhibitor, single point]

Q: Which “activity, negative = inhibition” value does the source give for `N#C/C(=C\c1ccc(-c2cccc(C(F)(F)F)c2)o1)C(=O)Nn1cnnc1` here?
A: inactive: 2.54%

Q: `COc1ccc(CNc2ncnc3ccc(-c4ccccc4C#N)cc23)c(OC)c1` was tested. Which Potency did it give?
A: inconclusive: 15.8 µM [inhibitor, partial curve]

Q: How did the “activity, negative = inhibition” value turn out when `CCN(CC)c1ccc(N2C(=O)/C(=C/c3cccnc3)SC2=S)cc1` was run?
A: inactive: 0.508%

Q: Which Potency does the source give for `Cc1ccc(S(=O)(=O)N(CC(=O)N/N=C/c2ccco2)c2cc(Cl)cc(Cl)c2)cc1` here?
A: inconclusive: 39.8 µM [inhibitor, single point]

Q: `O=C(Nc1ccc(NC(=O)c2ccco2)c(Cl)c1)c1cccc([N+](=O)[O-])c1` was tested. Which “activity, negative = inhibition” value did it give?
A: inactive: 7.34%

Q: For `COc1ccc(S(=O)(=O)Nc2nc3ccccc3s2)cc1`, which Potency is on record?
A: inconclusive: 25.1 µM [inhibitor, partial curve]

Q: How did the Potency turn out when `COC(=O)c1ccc(N2CCN(C)CC2)c(NC(=O)COc2ccc(OC)cc2)c1` was run?
A: inconclusive: 20 µM [inhibitor, partial curve]

Q: For `CC(OC(=O)C1CC1)C(=O)Nc1ccc([N+](=O)[O-])cc1Cl` (configuration not stated), which “activity, negative = inhibition” value is on record?
A: inactive: 6.75%

Q: `N=C(N)[C@H](N=Nc1ccccc1)C(N)=O` was tested. Which activity, negative = inhibition did it give?
A: inactive: -8.12% [at 13.5 µM]

Q: `CC[C@H](C)NC(=O)c1ccc(Cn2c(=S)[nH]c3c([nH]c4ccc(OC)cc43)c2=O)cc1` was tested. Which “activity, negative = inhibition” value did it give?
A: inactive: 6.68%

Q: How did the Potency turn out when `C=CCn1c(C)cc(C(=O)COC(=O)c2ccc3c(c2)NC(=O)CS3)c1C` was run?
A: inconclusive: 22.4 µM [inhibitor, single point]

Q: With `Cc1sc(NC(=O)/C=C/c2ccc3c(c2)OCO3)nc1-c1ccccc1` as the compound, how does the Potency read?
A: inconclusive: 28.2 µM [inhibitor, partial curve]

Q: How did the “activity, negative = inhibition” value turn out when `COc1ccc(C=O)cc1OS(=O)(=O)c1ccc(NC(C)=O)cc1` was run?
A: inactive: -9.28%

Q: How did the “activity, negative = inhibition” value turn out when `CS(=O)(=O)N(CC(=O)NCc1ccco1)c1ccc(Cl)cc1Cl` was run?
A: inactive: 2.92%

Q: How did the “activity, negative = inhibition” value turn out when `O=C(Cn1cc(C(F)(F)F)ccc1=O)N/N=C/c1cccc(Cl)c1` was run?
A: inactive: 11%

Q: `Clc1ccc(-c2ccnc(-n3cccc3)n2)s1` was tested. Which Potency did it give?
A: inconclusive: 39.8 µM [inhibitor, single point]

Q: `O=C1NN=C(c2ccccc2)CC1c1c[nH]c2ccccc12` (configuration not stated) was tested. Which Potency did it give?
A: inconclusive: 25.1 µM [inhibitor, single point]

Q: With `Cc1cc(C(=O)N(C)CC(=O)Nc2ccccc2C(F)(F)F)c(C)o1` as the compound, how does the Potency read?
A: inconclusive: 39.8 µM [inhibitor, single point]

Q: With `CCOC(=O)N1CCN(CC(=O)c2c(C)[nH]c3ccccc23)CC1` as the compound, how does the Potency read?
A: active: 11.2 µM

Q: For `C[Si](C)(C)C#Cc1ccccc1NC(=S)Nc1ccccc1`, which Potency is on record?
A: active: 12.6 µM

Q: Which Potency does the source give for `COc1ccc([N+](=O)[O-])cc1NC(=O)C(C)N(C)Cc1ccc(Br)cc1` (configuration not stated) here?
A: inconclusive: 39.8 µM [inhibitor, single point]

Q: Which Potency does the source give for `CCC(CC)(CC(=O)Nc1cccc(/C=C/c2nc(C3CCC3)cs2)c1)C(=O)O` here?
A: inconclusive: 11.2 µM [inhibitor, partial curve]

Q: Which Potency does the source give for `O=C(NCCC1=CCCCC1)c1ccc(Cl)c(S(=O)(=O)N2CCOCC2)c1` here?
A: active: 12.6 µM

Q: With `CCCn1c(SCC(=O)NCCc2ccccc2)nnc1-c1cccnc1` as the compound, how does the “activity, negative = inhibition” value read?
A: inactive: -0.271%

Q: With `FC(F)(F)COc1nc(N2CCOCC2)nc(N(c2ccccc2)c2ccccc2)n1` as the compound, how does the Potency read?
A: inconclusive: 39.8 µM [inhibitor, single point]

Q: For `Cc1ccccc1NC(=O)c1cc([N+](=O)[O-])ccc1NCCN1C(=O)CCC1=O`, which Potency is on record?
A: inconclusive: 25.1 µM [inhibitor, single point]

Q: `NC(=O)CC[C@@H]1NC(=O)[C@@H]2CCCN2C(=O)c2cc([N+](=O)[O-])cc(I)c2NCCCC[C@@H](C(=O)NC(CC(=O)O)C(N)=O)NC1=O` (some centres not stated) was tested. Which “activity, negative = inhibition” value did it give?
A: inactive: 3.59%
